# Experimental data published in the supplement of paper PMC3334620.
# Whole data set: some 33,000 sequences, median “E-score (-0.5 to 0.5)” near -0.011, cut for the highest 2% near 0.28. The list shows a part of the results.
# Biological target: T1, Gcr1 (UniProt P07261)
# T1 sequence: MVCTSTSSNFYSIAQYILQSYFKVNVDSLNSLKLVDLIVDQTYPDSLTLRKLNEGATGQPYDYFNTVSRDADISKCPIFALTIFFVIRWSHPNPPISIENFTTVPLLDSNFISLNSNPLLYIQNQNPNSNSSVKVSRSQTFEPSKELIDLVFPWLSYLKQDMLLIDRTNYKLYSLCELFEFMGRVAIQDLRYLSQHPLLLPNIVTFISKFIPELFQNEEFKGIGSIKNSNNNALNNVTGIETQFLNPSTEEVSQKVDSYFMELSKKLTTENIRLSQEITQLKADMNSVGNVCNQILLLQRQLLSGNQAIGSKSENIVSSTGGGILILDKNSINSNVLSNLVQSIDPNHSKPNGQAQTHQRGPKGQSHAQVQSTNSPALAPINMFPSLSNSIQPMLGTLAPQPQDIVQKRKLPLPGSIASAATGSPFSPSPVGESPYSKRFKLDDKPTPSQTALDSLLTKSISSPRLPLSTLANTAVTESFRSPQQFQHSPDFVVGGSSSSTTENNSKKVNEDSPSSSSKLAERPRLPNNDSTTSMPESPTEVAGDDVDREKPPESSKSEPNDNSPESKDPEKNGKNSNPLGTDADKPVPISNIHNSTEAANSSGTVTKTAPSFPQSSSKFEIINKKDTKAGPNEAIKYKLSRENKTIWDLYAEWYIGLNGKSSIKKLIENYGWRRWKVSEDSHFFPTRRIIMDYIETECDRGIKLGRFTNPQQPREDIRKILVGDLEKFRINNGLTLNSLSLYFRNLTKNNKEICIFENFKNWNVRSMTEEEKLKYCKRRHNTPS
# Assay: PBM E-score (8-mer binding enrichment) (E-score (-0.5 to 0.5)); higher = stronger / more preferred TF binding; most listed sequences are background and not binding sites
# Details: protein concentration: 100 nM; construct: GST-full length
# In short: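 Yeast transcription factors carrying a GST tag, as full-length proteins or DNA-binding domains, were produced by PURExpress in vitro transcription/translation. About 100-200 nM protein was applied to universal all-10-mer Agilent arrays, double-stranded by primer extension on fresh or once-stripped slides. Bound protein was detected with fluorescent anti-GST, and scans were normalised with masliner. The Universal PBM Analysis Suite gave each ungapped eight-base word, pooled with its reverse complement, an E-score, a modified Wilcoxon-Mann-Whitney statistic.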
row,Sequence,PBM E-score
1,CCACAAGA,0.203
2,CTATAAAA,0.193
3,ATCGTATG,0.139
4,GCCTAATA,-0.051
5,ATGCGTCA,-0.033
6,CCTCATTC,0.0288
7,TAGACCGA,-0.0554
8,GAAGTTCC,0.0578
9,GTACTCCA,0.032
10,GAATTCTA,0.148
11,GCGACAAC,0.0221
12,AAGTAACC,-0.0184
13,CTGAACCC,-0.0928
14,CCAACGAA,0.0869
15,ACGTCCGG,-0.0342
16,AGCATCAA,0.0409
17,AACGTCAT,-0.00568
18,AGTTAGGC,0.0125
19,AGTCCCGA,-0.15
20,CTCGCTGC,0.0762
21,GCGCCTCC,0.104
22,TAACTCCA,-0.151
23,CTAGCCGA,-0.0683
24,CTTATGGC,0.0336
25,GTCCAACA,0.103

row,Sequence,PBM E-score
1,AAGACCGT,-0.177
2,ACGCTGAA,0.0619
3,GGGCTTTA,-0.058
4,CACTTGTC,-0.115
5,GCCAGGCC,-0.324
6,AACTCAAC,0.114
7,GTCATCAA,0.074
8,GCGTAGTA,-0.0497
9,AATAGCAC,0.0185
10,CAAATGAC,0.242
11,CTGGCACA,-0.0796
12,ATTTTCGC,0.00527
13,ACCTAAGG,-0.0254
14,ATGGGATG,0.0554
15,TCTACAGA,-0.176
16,ATGAGCGA,-0.0523
17,AGCAAACG,-0.144
18,ATTTAACC,0.0266
19,GTTTAGCA,-0.18
20,GGTTCGGA,0.0134
21,CACGTTGA,0.0217
22,GACCCGGC,0.0182
23,GCGGCACA,-0.177
24,AAGCGAGA,0.0585
25,ACCTCGGA,-0.132

row,Sequence,PBM E-score
1,CCAAGAGA,-0.151
2,CTCCGGGA,0.00075
3,AGATGCGA,0.135
4,CCGACAAG,0.0334
5,ATATGTGA,0.0163
6,CCCTCTCC,-0.179
7,CCAGTGGA,0.0326
8,CGTTTTGA,-0.0332
9,AGTTGAAA,0.167
10,CATCTGCG,0.136
11,ATAACTGA,0.0854
12,TGGCACAA,-0.0481
13,GTTGAAAC,-0.149
14,TACCTAAA,0.0795
15,GGGCGGAC,-0.0774
16,CTGTGCGC,0.0563
17,ATAGTAGG,0.051
18,AGGTTCAA,-0.25
19,CTTCACAC,-0.239
20,CGAGATTA,0.0479
21,AAGAAGCC,0.401
22,TCGTGGAA,0.158
23,CCATTAAC,0.128
24,AGACTCTC,-0.0599
25,GAGTAATA,0.153

row,Sequence,PBM E-score
1,ACATTACT,-0.118
2,AGTTTACG,0.0614
3,AGTCTTAT,-0.187
4,GTTGGTTA,-0.0488
5,CCTAGCAG,-0.131
6,CTACGCAA,-0.134
7,AGGCCATA,-0.192
8,ACTTAGTG,0.143
9,ATCGATAC,0.114
10,AGGATAAC,-0.061
11,CCATCGAC,-0.155
12,ATGGTAAC,-0.0277
13,TAGAAAAA,0.0205
14,GAACGTCC,-0.0379
15,AACTATGA,-0.137
16,AGCCACGA,0.0571
17,CACCTGGG,0.0554
18,AGTGATGG,-0.0125
19,GATCGCAA,-0.0291
20,GGCAGTTA,0.061
21,CAACGGCA,-0.104
22,CCCGCAGC,0.194
23,GGGAAATA,-0.104
24,CTATCTGC,-0.0457
25,GCCACGTA,0.159

row,Sequence,PBM E-score
1,CAGCTACG,0.123
2,GACAGATA,0.0132
3,GTCATTAA,0.0346
4,AAATGAAC,-0.0469
5,CGCGGTCC,-0.283
6,CATGCTTC,-0.107
7,CGAGCAAA,-0.108
8,AAACCGCG,-0.0566
9,CCGAGATA,0.0614
10,CAGACGAA,0.188
11,CGCTTCGA,-0.0778
12,GGCCAGAA,-0.0131
13,ACTACTTA,0.148
14,TCCCGGGA,0.271
15,CTCTGGAA,0.256
16,ACAACAAA,-0.0593
17,CCTCGGCA,-0.217
18,CTTGCTTC,-0.0756
19,AGTTCATA,0.104
20,GTCACAAC,-0.0653
21,GCGAGGAC,-0.271
22,CGACGGAA,0.0253
23,GCGCCTGA,0.171
24,CACTGGAC,0.0576
25,ATAGGGAT,0.035

row,Sequence,PBM E-score
1,AAGCACCG,0.0663
2,ATGGAAAT,0.131
3,GGCAGCGA,0.0747
4,GGGATACA,0.189
5,ACCGAGGC,-0.259
6,GGTCTCGA,-0.1
7,GACGGTCA,-0.282
8,CTCCGGAC,-0.0074
9,AACGCGCG,-0.0701
10,CCACACAC,0.18
11,AGAAATCA,-0.0355
12,CCCCTAGA,-0.0902
13,GATGATGC,0.0601
14,GTGCCATA,-0.132
15,GCTAAGCC,-0.193
16,CCGCGTAG,-0.0306
17,TAACGCAA,0.184
18,CCGTCCAG,-0.095
19,GGAACCAA,0.31
20,GATCCCCC,0.176
21,AAGAGTGG,0.108
22,GGATACTA,0.265
23,ACACAGGC,0.0795
24,GAACGTTA,-0.161
25,ATCTAAAG,-0.118

row,Sequence,PBM E-score
1,AGTTGCCG,0.16
2,CCGTTCAG,0.0825
3,CTTAGGCC,-0.331
4,ACGTCTAA,0.22
5,CCTTTTCG,-0.0678
6,CGCTAGCC,-0.209
7,CTCCTCAA,0.00872
8,CCGATATA,0.109
9,GTTCCCAA,0.145
10,CTCCCCAA,0.0917
11,AATTATTA,0.228
12,CATTACGG,-0.107
13,GGTCTAGA,0.0412
14,GCGCATAC,0.0321
15,CACGGTAA,-0.233
16,GCGCAACC,-0.0761
17,CGCAACAC,0.0549
18,CTATTGGA,0.237
19,CTAGGGAA,0.0131
20,CTCGACAC,-0.144
21,AAGTCGGG,-0.0158
22,GACTTTGA,-0.102
